According to PubChem BioAssay AID624417 (National Center for Advancing Translational Sciences (NCATS), 2012):
The whole screen tested about 410,000 compounds, of which about 6,400 (1.6%) were called active. The shares of active, inactive and inconclusive entries below differ from those in the screen. The call rests on the fitted dose curve; in most records, active means well fitted inhibition curve with a large enough effect; inconclusive means small, poorly fitted or top-dose-only effect; inactive means no such curve, though single readings can be large or run the other way. No potency is given beside an inconclusive call; the fits are too rough.

The compounds below were run against Glucagon-like peptide 1 receptor (Homo sapiens) (UniProt P43220) (assay: qHTS of GLP-1 Receptor Inverse Agonists (Inhibition Mode)). Conditions: HEK293 GLP-1R CRE-luciferase, luminescence, 24 h, GLP-1R form is constitutively active; series mostly up to 38.3 µM.
Chain of UniProt P43220 (P43220 whole entry, looked up): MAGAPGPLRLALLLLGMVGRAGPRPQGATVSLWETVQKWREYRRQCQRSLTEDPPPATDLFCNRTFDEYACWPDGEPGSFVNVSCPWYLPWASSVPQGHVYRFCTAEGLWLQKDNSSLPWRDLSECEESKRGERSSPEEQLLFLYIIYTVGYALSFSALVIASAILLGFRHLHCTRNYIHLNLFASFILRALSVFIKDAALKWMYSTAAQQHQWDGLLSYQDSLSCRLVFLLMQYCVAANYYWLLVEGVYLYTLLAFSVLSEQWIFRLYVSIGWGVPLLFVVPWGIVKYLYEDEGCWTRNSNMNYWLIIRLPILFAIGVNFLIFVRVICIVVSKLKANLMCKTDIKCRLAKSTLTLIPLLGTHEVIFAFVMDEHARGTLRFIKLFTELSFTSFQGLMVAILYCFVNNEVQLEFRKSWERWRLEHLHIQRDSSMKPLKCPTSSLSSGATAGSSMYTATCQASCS
Procedure, shortened: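 Seeding at 200 cells/uL, 12 h culture, 24 hr compound treatment, then luciferase reagent and a luminescence read; cells are HEK293 stably expressing a constitutively active GLP-1R plus cAMP-responsive luciferase.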
Further: nearly all actives have a fitted effect of over 55% in size.
Potency means the concentration at half of the fitted maximal effect; tags describe the fitted curve by direction and shape.

| SMILES | Potency |
| --- | --- |
| COc1cc(OC)c(NC(=O)c2sc3nc4n(c(=O)c3c2C)CCCC4)cc1Cl | inactive |
| CCC(C)c1ccccc1NC(=O)CN(CC)CC(=O)Nc1ccc2c(c1)OCCO2 (stereo not given) | inconclusive [inhibitor, partial curve, poor fit] |
| Cc1ccc(/C(=N\O)c2oc3c(C)c4oc(=O)cc(C)c4cc3c2C)cc1 | inconclusive [inhibitor, single point] |
| COc1ccc(CN2CCc3cc(OC)c(OC)cc3C2)cc1O | inconclusive [inhibitor, single point] |
| OCCCn1c(CCCNc2nc(-c3cccc(Br)c3)cs2)nc2cc(Cl)c(N3CCCCC3)cc21 | active: 10 µM |
| CC(=O)N1CC(C)Oc2ccc(S(=O)(=O)NC(CC(=O)O)c3ccccc3)cc21 (stereo not given) | inactive |
| Cc1cccc(C(=O)O/N=C(\N)Cc2ccc([N+](=O)[O-])cc2)c1 | inconclusive [inhibitor, single point] |
| CCCOc1cccc(C(=O)Nc2cc(-c3nc4ccccc4[nH]3)ccc2C)c1 | inconclusive [inhibitor, single point] |
| COc1cccc(CN(C)C(=O)CNC(=O)c2sc3ccccc3c2Cl)c1OC | inconclusive [inhibitor, single point] |
| C=Cc1ccc(Cn2c(C)c(C(=O)NCc3ccc4c(c3)OCCO4)sc2=O)cc1 | inactive |
| COc1ccc(-c2cc(-c3nnc(COC(=O)c4ccc(O)cc4)o3)c3ccccc3n2)cc1OC | inconclusive [inhibitor, single point] |
| COc1ccc(NC(=O)CN(C)C(=O)C(C)Oc2ccc(Br)cc2)cc1 (stereo not given) | inconclusive [inhibitor, partial curve, poor fit] |
| CCCC(=O)Nc1nc(-c2ccc(Cl)s2)cs1 | inconclusive [inhibitor, partial curve, poor fit] |
| CCCCNCc1cc2ccccc2o1 | inactive |
| COc1cc2c(cc1OC)CN(C(=O)c1ccc(-c3ccccc3)cc1)CC2 | inconclusive [inhibitor, single point] |
| COC(=O)c1cc2oc3ccccc3c2n1CC(=O)Nc1cccc(SC)c1 | inactive |
| CCOc1ccc2oc(C(=O)N3CCCN(C)CC3)c(C)c2c1 | inconclusive [inhibitor, single point] |
| O=c1c2ccccc2cnn1Cc1ccc(Br)cc1F | inconclusive [inhibitor, single point] |
| COc1ccc(C2C(C(=O)Nc3ccccc3)=C(C)Nc3nc(-c4ccccc4)nn32)c(OC)c1 (stereo not given) | inconclusive [inhibitor, single point] |
| COc1ccc2nc(NC(=O)C3CCCN(S(=O)(=O)c4cccs4)C3)sc2c1 (stereo not given) | inconclusive [inhibitor, partial curve, poor fit] |
| CC1=CC(C)(C)N=C(Nc2nc(C)c3cc(C)cc(C)c3n2)N1 | inconclusive [inhibitor, single point] |
| CCOc1ccc(CN2C(=O)c3ccccc3Sc3ccc(C(=O)NCc4ccc5c(c4)OCO5)cc32)cc1 | inactive |

| SMILES | Potency |
| --- | --- |
| O=C(CSc1nc2ccc([N+](=O)[O-])cc2[nH]1)c1ccc(Cl)cc1 | inconclusive [inhibitor, single point] |
| Cc1ccc(N(Cc2ccccc2)C(=O)c2ccc(F)cc2)cc1 | inconclusive [inhibitor, single point] |
| Cc1ccccc1NC(=O)Nc1csc2c1CCCC2 | inconclusive [inhibitor, partial curve, poor fit] |
| CC(C)(C)n1ncc2c(=O)n(CC(=O)OCc3ccccc3)cnc21 | inconclusive [inhibitor, partial curve, poor fit] |
| COc1ccc(C=Nc2cccnc2N)cc1 | inactive |
| COc1ccc2c(c1)C(C)CC(C)(C)N2C(=O)CSc1nc2ccccc2s1 (stereo not given) | inconclusive [inhibitor, full curve, poor fit] |
| Nc1cc(C(=O)O)c(Oc2ccc(Cl)cc2Cl)cc1C(=O)O | inactive |
| COc1ccc(OC2CCN(S(=O)(=O)c3cccc(F)c3)CC2)cc1 | inconclusive [inhibitor, single point] |
| O=c1[nH]c(C2CCN(S(=O)(=O)c3ccc(S(=O)(=O)NC4CC4)cc3)CC2)nc2c1nnn2Cc1ccc(F)cc1 | inconclusive [inhibitor, single point] |
| CC(C)(C)c1ccc(C(=O)NCCN2CCCC2)cc1 | inconclusive [inhibitor, single point] |
| COc1ccc(C(=O)c2sc(NC(C)C)nc2N)cc1OC | inactive |
| COc1ccc(CN2CCn3ncc(C(=O)Nc4ccc(Cl)cc4Cl)c3C2=O)cc1 | inactive |
| CC(=O)NCCC1CCCCN1C(=O)c1cc(COc2cc(C)ccc2C)on1 (stereo not given) | inactive |
| CCCCCCN1CCN(C2CN(Cc3ccc(F)cc3)S(=O)(=O)C2)CC1 (stereo not given) | inconclusive [inhibitor, partial curve, poor fit] |
| COc1ccc(Cl)cc1-c1cc(C(=O)Nc2cc(OC)c(OC)c(OC)c2)[nH]n1 | inconclusive [inhibitor, single point] |
| CN1CCN(C(=S)Nc2ccc(Oc3ccccc3)cc2)CC1 | inconclusive [inhibitor, partial curve, poor fit] |
| Cc1cccc(-n2ncc3c(N4CCOCC4)ncnc32)c1 | active: 3.16 µM |
| COc1cccc(NC(=O)CSc2nnc(NC(=O)C3CC3)s2)c1 | inactive |
| Cc1ccc(NC(=S)NCc2ccc(Cl)cc2)c(OC(F)F)c1 | inconclusive [inhibitor, partial curve, poor fit] |
| Cc1ccc(N(CCC(=O)O)S(=O)(=O)c2ccccc2)cc1 | inactive |
| Brc1ccc([C@H]2C=C[C@H]3CCCN4CC[C@H]2[C@@H]3[C@]42CO2)cc1 | inconclusive [inhibitor, partial curve, poor fit] |
| O=C(O)c1ccc(COc2ccc3c4c(c(=O)oc3c2)CCC4)o1 | inconclusive [inhibitor, partial curve, poor fit] |

| SMILES | Potency |
| --- | --- |
| O=C(/C=C/c1ccco1)Nc1ccc(Oc2ccccc2)cc1 | inconclusive [inhibitor, partial curve] |
| CC(C)(C)C1CCc2nc(NC(=O)c3cccc(Cl)c3)sc2C1 (stereo not given) | inconclusive [inhibitor, full curve, poor fit] |
| Cc1nn(CSc2c(F)c(F)c(F)c(F)c2F)c(C)c1[N+](=O)[O-] | inconclusive [inhibitor, single point] |
| Oc1ccc(C[C@@H]2CNCCN2CCC23CC4CC(CC(C4)C2)C3)cc1 | inconclusive [inhibitor, partial curve, poor fit] |
| Cc1c(C(=O)NCc2cccc([N+](=O)[O-])c2)sc(=O)n1Cc1ccc(C(C)C)cc1 | inconclusive [inhibitor, single point] |
| CCCNC(=O)C/C(C)=N/NC(=O)C(=O)Nc1ccccn1 | inactive |
| CCCCc1c(-c2cccc(Cl)c2)ncn1CCc1ccccc1OC | inconclusive [inhibitor, single point] |
| CC(C)Cn1c(N)c(C(=O)NCC2CCCO2)c2nc3ccccc3nc21 (stereo not given) | inconclusive [inhibitor, partial curve, poor fit] |
| O=C(CSc1nnc(-c2ccccc2Br)n1-c1ccccc1)c1ccc(F)cc1 | inconclusive [inhibitor, partial curve, poor fit] |
| Clc1ccc(N2COC3c4cccc5cccc(c45)C32)cc1 (stereo not given) | inconclusive [inhibitor, single point] |
| COc1ccccc1OCCNC(=O)C(=O)c1c[nH]c2ccccc12 | inconclusive [inhibitor, single point] |
| CCOc1ccc(CCNC(=O)C(CC)n2nc(C)c3c(C)n(-c4ccccc4)nc3c2=O)cc1 (stereo not given) | inactive |
| CCCCSCCCNC(=O)C1CCN(Cc2nc(-c3ccc(CC)cc3)oc2C)CC1 | inactive |
| Cc1cccc(N2CCN(C(=O)c3sc4nc5n(c(=O)c4c3C)CCC5)CC2C)c1 (stereo not given) | inactive |
| COc1ccc(-c2c(C#N)c(SCC(=O)Nc3ccc(C)c(C)c3)nc(C)c2C(=O)Nc2ccc(Cl)cc2)cc1 | inconclusive [inhibitor, full curve, poor fit] |
| NC(Cc1ccc(C(F)(F)F)cc1)c1csc(NC(=O)Nc2ccccc2Oc2ccccc2)n1 (stereo not given) | inconclusive [inhibitor, partial curve, poor fit] |
| CCN(CC)CCCN=Cc1c(O)n(-c2ccc(C)cc2)c(=O)c2ccccc12 | inconclusive [inhibitor, full curve] |
| Cc1cccc(Oc2ccccc2NC(=O)CN2C(=O)NC3(CCCC3)C2=O)c1 | inconclusive [inhibitor, partial curve, poor fit] |
| Cc1cc(-c2ccc(S(=O)(=O)Nc3cccc(C)c3C)s2)on1 | inconclusive [inhibitor, full curve] |
| O=C(NCC1CCCO1)c1cc2c([nH]c3ccccc32)c(-c2cccc(Br)c2)n1 (stereo not given) | inconclusive [inhibitor, single point] |
| COc1ccc(CCNC(=O)c2ccc(N(C)S(=O)(=O)c3ccc(C)cc3)cc2)cc1OC | inconclusive [inhibitor, single point] |
